Data reported in PubChem BioAssay AID328 (DTP/NCI, 2004).
Toxic doses and inconclusive results are not listed. A number of entries come with more than one value. They are shown here; other results are not. An entry can have further records. The values listed for one entry do not match, cause unknown; they may come from other doses, times, organisms or constructs than stated.

System: BDF1 mice, P388 leukemia ip, median survival T/C
Experiment: NCI In Vivo Anticancer Drug Screen. Data for tumor model P388 Leukemia (intraperitoneal) in B6D2F1 (BDF1) mice
Details: endpoint: median survival time, higher = longer survival
In short: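 Transplantable tumour in mice; compound vs vehicle dosing; survival scored; ratio of treated to control reported.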

SMILES: COc1cccc2c1C(=O)c1c(O)c3c(c(O)c1C2=O)C[C@@](O)(C(C)=O)C[C@@H]3OC(=O)CCN
- T/C (dose: 12.5 mg/kg/injection, schedule: Q01DX009 (ip), vehicle: water): 100 % of control and 160 % of control

SMILES: C[n+]1ccc(Nc2ccc(NC(=O)c3ccc(Nc4cc[n+](C)c5ccc([N+](=O)[O-])cc45)cc3[N+](=O)[O-])cc2)cc1
- T/C (dose: 50.0 mg/kg/injection, schedule: Q04DX003 (ip), vehicle: saline): 124 % of control and 165 % of control
- T/C (dose: 400.0 mg/kg/injection, schedule: Q04DX003 (ip), vehicle: saline): 105 % of control and 184 % of control

SMILES: COc1cccc2c1C(=O)c1c(O)c3c(c(O)c1C2=O)C[C@@](O)(/C(C)=N/NC(=O)c1ccc(N(C)C)cc1)C[C@@H]3OC1CC(N)C(O)C(C)O1 (stereo partly drawn)
- T/C (dose: 0.5 mg/kg/injection, schedule: Q01DX009 (ip), vehicle: water): 104 % of control and 194 % of control

SMILES: COc1cccc2c1C(=O)c1c(O)c3c(c(O)c1C2=O)C[C@@](O)(/C(C)=N/NC(=O)c1ccc(Cl)c(Cl)c1)C[C@@H]3OC1CC(N)C(O)C(C)O1 (stereo partly drawn)
- T/C (dose: 0.25 mg/kg/injection, schedule: Q01DX009 (ip), vehicle: water): 107 % of control and 163 % of control

SMILES: CC(CN1CC(=O)NC(=O)C1)N1CC(=O)NC(=O)C1.[Cl-].[Pt+4] (stereo not drawn)
- T/C (dose: 400.0 mg/kg/injection, schedule: Q01DX009 (ip), vehicle: saline): 113 % of control and 183 % of control

SMILES: C[n+]1ccc(Nc2ccc(NC(=O)c3ccc(N)cc3)cc2)cc1
- T/C (dose: 200.0 mg/kg/injection, schedule: Q04DX003 (ip), vehicle: water): 124 % of control and 150 % of control
- T/C (dose: 400.0 mg/kg/injection, schedule: Q04DX003 (ip), vehicle: water): 87 % of control, 157 % of control, 184 % of control
